Results: the supplement of paper PMC8813932
Structures can show the parent of a compound that is named as a salt. ± gives the standard deviation of the averaged measurements. The list shows a part of the results. Most values come without repeats; read them as rough.

Columns and labels:
Test in all cases: log2 surviving fraction relative to plate median (drug vs vehicle, or drug+dl922-947 vs dl922-947 alone); ovarian cancer lines: OVCAR4 is platinum-sensitive while Ov4Cis resists cisplatin and Ov4Carbo carboplatin; higher = more cell survival
Details in all cases: compound concentration: 10 uM, 192 h
OVCAR4 = system: OVCAR4
Ov4Carbo = system: Ov4Carbo
Ov4Cis = system: Ov4Cis
[1] = dl922-947 oncolytic adenovirus co-treatment: MOI 10
[2] = dl922-947 oncolytic adenovirus co-treatment: none

Structure (SMILES)	log2 surviving fraction (OVCAR4; [1])	log2 surviving fraction (OVCAR4; [2])	log2 surviving fraction (Ov4Carbo; [1])	log2 surviving fraction (Ov4Carbo; [2])	log2 surviving fraction (Ov4Cis; [1])	log2 surviving fraction (Ov4Cis; [2])
CCCCCCCCCC(=O)N[C@@H](Cc1c[nH]c2ccccc12)C(=O)N[C@H](CC(N)=O)C(=O)N[C@@H](CC(=O)O)C(=O)N[C@@H]1C(=O)NCC(=O)N[C@@H](CCCN)C(=O)N[C@@H](CC(=O)O)C(=O)N[C@H](C)C(=O)N[C@@H](CC(=O)O)C(=O)NCC(=O)N[C@H](CO)C(=O)N[C@@H]([C@H](C)CC(=O)O)C(=O)N[C@@H](CC(=O)c2ccccc2N)C(=O)O[C@@H]1C [Daptomycin]	-0.476 ± 0.11	0.0487 ± 0.72	0.106	-0.481	0.151	-0.223
CC1(C)S[C@@H]2[C@H](NC(=O)[C@H](N)c3ccc(O)cc3)C(=O)N2[C@H]1C(=O)O [Amoxicillin (Amoxycillin)]	0.317 ± 0.3	0.747 ± 1.4	0.789	1.24	-0.00445	0.324
CN1C(CCl)Nc2cc(Cl)c(S(N)(=O)=O)cc2S1(=O)=O (configuration not stated) [Methyclothiazide]	-0.0288 ± 0.091	0.727 ± 0.24	-0.34	0.362	-0.21	0.431
CNC(=O)c1ccccc1Sc1ccc2c(/C=C/c3ccccn3)n[nH]c2c1 [Axitinib]	-1.41 ± 0.89	-0.766 ± 1.7	-4.46	-0.686	-0.641	0.295
CC(=O)Oc1cc2c(s1)CCN(C(C(=O)C1CC1)c1ccccc1F)C2 (configuration not stated) [Prasugrel (Effient)]	1.1 ± 1.4	4.09 ± 2.9	1.97	0.822	1.51	2.08
Cc1cc(=O)[nH]c(=S)[nH]1 [Methylthiouracil]	0.155 ± 0.37	0.359 ± 0.48	0.297	-0.000826	0.0813	0.5
COC(=O)[C@H](Cc1ccccc1)NC(=O)[C@@H](N)CC(=O)O [Aspartame]	-0.143 ± 0.87	-0.0139 ± 0.85	-0.439	0.0988	0.0597	0.00812
C[C@]12C=CC(=O)C=C1CC[C@@H]1[C@@H]2[C@@H](O)C[C@@]2(C)[C@H]1CC[C@]2(O)C(=O)CO [Prednisolone (Hydroretrocortine)]	0.516 ± 0.56	0.08 ± 0.061	1.58	1.22	1.83	-1.72
CO[C@H]1O[C@@H]2O[C@@]3(C)CC[C@H]4[C@H](C)CC[C@@H]([C@H]1C)[C@@]24OO3 [Artemether (SM-224)]	-0.859 ± 0.12	-1.54 ± 0.015	-1.21	0.48	0.232	-0.782
CS(=O)(=O)c1ccc([C@@H](O)[C@@H](CO)NC(=O)C(Cl)Cl)cc1 [Thiamphenicol (Thiophenicol)]	0.538 ± 0.33	-0.707 ± 0.45	-0.264	-2.27	-0.0066	0.335
Nc1ccn([C@@H]2O[C@H](CO)[C@@H](O)[C@@H]2O)c(=O)n1 [Cytarabine]	-4.4 ± 2	-4.73 ± 1.3	-3.57	-4.64	-5.32	-7.53
COCCOC(=O)C1=C(C)NC(C)=C(C(=O)OC(C)C)C1c1cccc([N+](=O)[O-])c1 (configuration not stated) [Nimodipine (Nimotop)]	-1.22 ± 0.23	-0.313 ± 0.53	0.817	0.0115	-0.553	-1.16
CC(N)C12CC3CC(CC(C3)C1)C2 (configuration not stated) [Rimantadine (Flumadine)]	-0.307 ± 0.78	0.0108 ± 0.11	0.623	-0.524	-0.142	-0.255
CC1=C(C(=O)OC(C)C)C(c2cccc([N+](=O)[O-])c2)C(C(=O)OC2CN(C(c3ccccc3)c3ccccc3)C2)=C(N)N1 (configuration not stated) [Azelnidipine]	0.487 ± 0.6	1.26 ± 0.23	-0.494	1.17	0.0085	1.09
Cc1ccccc1N1C(=O)c2cc(S(N)(=O)=O)c(Cl)cc2NC1C (configuration not stated) [Metolazone (Zaroxolyn)]	-0.74 ± 0.08	-0.267 ± 0.59	-0.835	-0.716	-0.594	-0.36
O=c1[nH]c(=O)n([C@H]2C[C@H](O)[C@@H](CO)O2)cc1I [Idoxuridine]	1.13 ± 0.4	-1.96 ± 0.31	2.15	-4.84	0.119	-1.54
CC[C@H]1OC(=O)C[C@@H](O)[C@H](C)[C@@H](O[C@@H]2O[C@H](C)[C@@H](O[C@H]3C[C@@](C)(O)[C@@H](O)[C@H](C)O3)[C@H](N(C)C)[C@H]2O)[C@@H](CC=O)C[C@@H](C)C(=O)/C=C/C(C)=C/[C@@H]1CO[C@@H]1O[C@H](C)[C@@H](O)[C@@H](OC)[C@H]1OC [Tylosin tartrate]	0.00931 ± 0.27	-0.0804 ± 0.29	0.355	-0.14	-0.191	0.174
CCCCC1(COC(=O)CCC(=O)O)C(=O)N(c2ccccc2)N(c2ccccc2)C1=O [Suxibuzone]	0.533 ± 0.52	0.0246 ± 1	0.671	0.804	-0.276	0.0925
CCC1(c2cccc(O)c2)CCCCN(C)C1 (configuration not stated) [Meptazinol HCl]	-1.05 ± 0.21	-0.305 ± 0.87	-0.213	0.371	-0.977	-0.733
Clc1ccc(C(Cn2ccnc2)OCc2ccsc2Cl)c(Cl)c1 (configuration not stated) [Tioconazole]	-1.74 ± 0.69	-2.38 ± 0.41	-2.96	-2.38	-4.17	-1.27
Nc1ccn([C@H]2CC[C@@H](CO)O2)c(=O)n1 [Zalcitabine]	1.01 ± 0.31	-1.08 ± 0.32	3.82	0.224	0.923	-0.377

Structure (SMILES)	log2 surviving fraction (OVCAR4; [1])	log2 surviving fraction (OVCAR4; [2])	log2 surviving fraction (Ov4Carbo; [1])	log2 surviving fraction (Ov4Carbo; [2])	log2 surviving fraction (Ov4Cis; [1])	log2 surviving fraction (Ov4Cis; [2])
CC(=O)Nc1ncc([N+](=O)[O-])s1 [Nithiamide]	0.93 ± 0.093	1.68 ± 0.44	-0.171	0.676	0.566	-0.726
CCN(Cc1ccncc1)C(=O)C(CO)c1ccccc1 (configuration not stated) [Tropicamide]	0.455 ± 0.34	0.793 ± 0.41	-1.03	0.0659	0.523	1.82
CC1(C)O[C@@H]2C[C@H]3[C@@H]4C[C@H](F)C5=CC(=O)C=C[C@]5(C)[C@@]4(F)[C@@H](O)C[C@]3(C)[C@]2(C(=O)CO)O1 [Fluocinolone acetonide (Flucort-N)]	1.66 ± 0.43	-0.294 ± 0.096	2.3	1.2	1.83	-0.656
CN1CCN(C2=Nc3cc(Cl)ccc3Nc3ccccc32)CC1 [Clozapine (Clozaril)]	0.0857 ± 0.47	-0.463 ± 0.37	0.00762	1.34	-1.53	0.284
O=C(C1CCCCC1)N1CC(=O)N2CCc3ccccc3C2C1 (configuration not stated) [Praziquantel (Biltricide)]	0.451 ± 0.21	0.434 ± 0.021	-0.774	-0.0872	-0.00963	0.201
Nc1ncnc2c1ncn2[C@@H]1O[C@H](CO)[C@@H](O)[C@@H]1O [Vidarabine (Vira-A)]	1.12 ± 0.45	0.594 ± 0.35	0.256	1.37	-1.05	0.502
CC[C@H](C)[C@H](N)C1=N[C@H](C(=O)N[C@@H](CC(C)C)C(=O)N[C@H](CCC(=O)O)C(=O)N[C@H](C(=O)N[C@H]2CCCCNC(=O)[C@H](CC(N)=O)NC(=O)[C@@H](CC(=O)O)NC(=O)[C@H](Cc3cnc[nH]3)NC(=O)[C@@H](Cc3ccccc3)NC(=O)[C@H]([C@@H](C)CC)NC(=O)[C@@H](CCCN)NC2=O)[C@@H](C)CC)CS1 [Bacitracin]	0.699 ± 0.3	0.906 ± 0.84	0.646	1.08	0.336	0.724
Cc1cc(-n2c(=O)[nH]c(=O)n(C)c2=O)ccc1Oc1ccc(SC(F)(F)F)cc1 [toltrazuril]	0.796 ± 0.086	0.742 ± 1.1	0.605	0.187	1.18	0.528
CC[C@H](C)C(=O)O[C@H]1C[C@@H](C)C=C2C=C[C@H](C)[C@H](CC[C@@H]3C[C@@H](O)CC(=O)O3)[C@H]21 [Lovastatin (Mevacor)]	0.186 ± 0.16	-1.81 ± 0.8	-1.27	-3.26	-0.325	-0.62
Oc1c(Br)cc(Br)c2cccnc12 [Broxyquinoline]	-2.7 ± 0.21	-1.4 ± 0.25	-2.97	-0.977	-2.15	0.0368
CCc1oc2ccccc2c1C(=O)c1cc(Br)c(O)c(Br)c1 [Benzbromarone]	0.762 ± 1.1	0.673 ± 0.097	-0.148	0.231	0.311	0.0674
Clc1ccc(C(c2ccccc2Cl)C(Cl)Cl)cc1 (configuration not stated) [Mitotane (Lysodren)]	0.0752 ± 0.97	-0.533 ± 0.16	0.956	1.16	-0.921	-1.09
Cl.N=C(N)NCCC[C@H](N)C(=O)O [L-Arginine HCl]	-0.0188 ± 0.085	0.203 ± 0.29	1.34	0.127	0.301	0.581
C[C@@H]1O[C@@H]1P(=O)(O)O [Fosfomycin Tromethamine]	0.331 ± 0.15	0.664 ± 0.58	0.403	0.339	-0.796	0.463
O=P(O)(O)C(Cl)(Cl)P(=O)(O)O [Clodronate Disodium]	0.739 ± 0.33	0.641 ± 0.36	0.0089	0.636	0.897	0.814
CC[C@@H]1C(=O)OC[C@@H]1Cc1cncn1C [Pilocarpine HCl]	0.804 ± 0.15	1.09 ± 0.33	0.943	1.22	0.998	0.853
CC(=O)NC[C@H]1CN(c2ccc(N3CCOCC3)c(F)c2)C(=O)O1 [Linezolid (Zyvox)]	2.3 ± 2.7	0.0939 ± 0.85	2.19	-1.22	-0.0432	0.102
Cc1ccc(S(=O)(=O)NC(=O)NN2CCCCCC2)cc1 [Tolazamide]	0.479 ± 0.15	0.325 ± 0.63	0.298	0.112	0.0459	0.305
COC(=O)[C@@H]1CC2=CC(=O)CC[C@]2(C)[C@@]23O[C@@H]2C[C@@]2(C)[C@@H](CC[C@@]24CCC(=O)O4)[C@H]13 [Eplerenone]	0.553 ± 0.23	0.26 ± 0.25	-0.00811	1.14	0.354	0.804
COc1cc2c(cc1Cc1cccc(Cl)c1F)c(=O)c(C(=O)O)cn2[C@H](CO)C(C)C [Elvitegravir (GS-9137)]	-1.86 ± 0.72	-1.05 ± 0.18	-1.8	-0.798	-1.18	-1.93
CC(=O)O[C@]1(C(C)=O)CC[C@H]2[C@@H]3C[C@H](C)C4=CC(=O)C=C[C@]4(C)[C@@]3(F)[C@@H](O)C[C@@]21C [Fluorometholone Acetate]	2.12 ± 0.7	0.781 ± 0.25	0.946	0.57	3.01	-0.779
